{"source": "ChEMBL document CHEMBL4888484", "about": "“Replenishing the malaria drug discovery pipeline: Screening and hit evaluation of the MMV Hit Generation Library 1 (HGL1) against asexual blood stage Plasmodium falciparum ,using a nano luciferase reporter read-out” (2022)", "note": "The campaign covered roughly 150,000 compounds. About 540 (0.36%) showed an effect of 50% or more. The list shows a part of the results.", "data": [{"tested_on": "Plasmodium falciparum", "test": "Primary screen in NF54 nanoGlo assay, in single point, at 2uM, 72h; a lower Z score goes with more inhibition", "assay_type": "functional, Erythrocyte", "details": "timepoint 72 hour", "units": {"% Inhibition": "%"}, "values": [{"compound": "CN1CC(NC(=O)C2COCC(=O)N2Cc2ccccc2)CC1=O", "note": "(configuration not stated)", "% Inhibition": -3, "Z score": 0.3}, {"compound": "O=c1c2ccccc2nnn1CN1CCN(c2ccccn2)CC1", "% Inhibition": -4, "Z score": 0.55}, {"compound": "CCn1nc(C(=O)N2CCC(Cc3ccccc3)CC2)c2c1CCOC2", "% Inhibition": 1, "Z score": -0.16}, {"compound": "Cc1ccc(-c2c(S(=O)(=O)c3ccccc3)cnc3cc(-c4ccc(Br)cc4)nn23)cc1", "% Inhibition": 0, "Z score": 0.05}, {"compound": "COc1ccc(CCc2nc(N)n[nH]2)cc1", "% Inhibition": -12, "Z score": 1.49}, {"compound": "CC(=O)NCc1nc2c(n1C)CN(C(=O)CCCc1ccccc1)CC2", "% Inhibition": -5, "Z score": 0.52}, {"compound": "O=C([C@H]1CC(=O)N(C2CCCC2)C1)N1CC2(CCOC2)C1", "% Inhibition": -3, "Z score": 0.6}, {"compound": "CC1(C)CC(=O)c2cn(-c3ccccc3)c(=O)c(C(=O)N3CCOCC3)c2C1", "% Inhibition": 5, "Z score": -0.61}, {"compound": "c1csc(-c2noc(-c3ccnn3C3CCCC3)n2)c1", "% Inhibition": 0, "Z score": 0.07}, {"compound": "CC1(C)CN(C(=O)CCn2ccnn2)CC[C@H]1C(F)(F)F", "% Inhibition": -8, "Z score": 1.72}, {"compound": "Cc1cc(=O)[nH]c(CCn2ccnc2-c2coc(-c3ccccc3)n2)n1", "% Inhibition": 4, "Z score": -0.57}, {"compound": "Cc1ccc(-c2cccc(C(=O)N3CC[C@](C)(O)[C@H](O)C3)c2)o1", "% Inhibition": -1, "Z score": 0.22}, {"compound": "Cc1ccc(-c2noc(-c3ccccc3S(=O)(=O)N3CCC(C)CC3)n2)cc1", "% Inhibition": -1, "Z score": 0.11}, {"compound": "C[C@@H](Cc1cc2ccccc2o1)NC(=O)c1ccc2c(c1)OCO2", "% Inhibition": -14, "Z score": 2.45}, {"compound": "C[C@](O)(Cc1nc(-c2ccnc(-n3cccn3)c2)no1)C1CC1", "% Inhibition": 0, "Z score": 0.07}, {"compound": "Cn1cccc1S(=O)(=O)N1CC2C(C1)C2(C)C", "note": "(configuration not stated)", "% Inhibition": 0, "Z score": -0.02}, {"compound": "CN(Cc1ccccc1)[C@H]1[C@H](O)[C@H](CO)O[C@@H]1CNC1CCCCC1", "% Inhibition": 5, "Z score": -0.63}, {"compound": "COC(=O)c1[nH]c(C)c(CN(C)C(=O)c2c(F)cccc2Cl)c1C", "% Inhibition": -5, "Z score": 0.67}, {"compound": "O=C(Cc1ccc(Br)cc1)N1CC(CN2C(=O)CCC2=O)C1", "% Inhibition": -15, "Z score": 1.98}, {"compound": "O=C(NC1CCC(C(F)F)CC1)c1cccnn1", "note": "(configuration not stated)", "% Inhibition": 0, "Z score": -0.01}, {"compound": "Cc1c(S(=O)(=O)N[C@H]2COC[C@@H]2N2CCCC2)cnn1C", "% Inhibition": -9, "Z score": 1.42}, {"compound": "CC(NC(=O)[C@H]1C[C@@H]1c1ccncc1)C1(S(C)(=O)=O)CC1", "note": "(some centres not stated)", "% Inhibition": -5, "Z score": 0.73}, {"compound": "O=C1N[C@H]2CCC[C@@H]1CN(C(=O)CCCc1cn[nH]c1)C2", "% Inhibition": -6, "Z score": 0.62}, {"compound": "Cn1c(-c2ccccn2)nc2ccc(F)cc21", "% Inhibition": -1, "Z score": 0.14}, {"compound": "Cc1cc(NC(=O)N(C2CC2)[C@@H](C)C(C)C)ccn1", "% Inhibition": -8, "Z score": 1.18}, {"compound": "COCC1(CC(=O)N2CC(c3cnc4ccccc4n3)C2)CC1", "% Inhibition": -8, "Z score": 1.45}, {"compound": "Cc1nccn1-c1cc(CNC(=O)[C@H](C)n2cncn2)ccn1", "% Inhibition": -4, "Z score": 0.46}, {"compound": "O=C(C1Cc2ccccc21)N1CCC(c2nnc[nH]2)C1", "note": "(configuration not stated)", "% Inhibition": -6, "Z score": 0.81}, {"compound": "CC1CC(C)CN(CCCN2C(=O)c3ccc(-c4ccco4)n3CC2(C)C(=O)NC2CCCCCC2)C1", "note": "(configuration not stated)", "% Inhibition": -12, "Z score": 1.49}, {"compound": "CN(C)c1noc(-c2cccc3c2OCC3(C)C)n1", "% Inhibition": -1, "Z score": 0.19}, {"compound": "c1cnn(Cc2nc(C3CCOCC3)nn2CCc2cnc[nH]2)c1", "% Inhibition": -14, "Z score": 2.61}, {"compound": "CCCc1nccn1Cc1nc(-c2ccc(C)s2)oc1C", "% Inhibition": -5, "Z score": 0.76}, {"compound": "CC(C)=CCN1C(=O)[C@@H]2CC[C@H]1CN(c1nnc(C(C)C)s1)C2", "% Inhibition": -12, "Z score": 1.5}, {"compound": "CC1CCCC(OCC(=O)N2CC(C)C(N(C)C)C2)C1", "note": "(configuration not stated)", "% Inhibition": -10, "Z score": 1.34}, {"compound": "Cc1cc(C(=O)N[C@@H](Cn2nccn2)c2ccccc2)n(C)n1", "% Inhibition": -8, "Z score": 1.27}, {"compound": "Cc1ccc(NC(=O)CCS(=O)(=O)c2ccc3c(c2)CC(=O)N3C)cc1N(C)C", "% Inhibition": -1, "Z score": 0.09}, {"compound": "N#Cc1cc(CN2CCN3CCCC[C@H]3C2)c(F)cc1F", "% Inhibition": -8, "Z score": 1.31}, {"compound": "CC1CCN(c2nc3c(c(Oc4ccccc4)n2)CN(C(=O)c2ccco2)CC3)CC1", "% Inhibition": -4, "Z score": 0.56}, {"compound": "O=C(NCCc1cscn1)Nc1cc(F)cc(Br)c1", "% Inhibition": -6, "Z score": 1.08}, {"compound": "CCc1sc(NC(=O)c2cc3c([nH]c2=O)CCCC3=O)nc1-c1ccc2c(c1)CCCC2", "% Inhibition": -1, "Z score": 0.11}, {"compound": "Cc1cnn(C(=O)Cn2nc(C(F)F)cc2C)c1", "% Inhibition": -3, "Z score": 0.52}, {"compound": "COc1ccc(C2(NCc3cc(O)cc(Cl)c3)CCOCC2)cc1", "% Inhibition": 27, "Z score": -0.14}, {"compound": "O=C(Nc1ccc(N2CCN(c3ccccc3)C2=O)nc1)C1CCCCC1", "% Inhibition": -19, "Z score": 2.02}, {"compound": "O=C(Cc1cccc2ccccc12)NOCC(=O)NC1CCCC1", "% Inhibition": -8, "Z score": 0.68}, {"compound": "CC(C)C(=O)N[C@@H](CC(=O)O)c1cccc(Br)c1", "% Inhibition": -7, "Z score": 0.95}, {"compound": "C=CCC(CC=C)C(=O)NS(=O)(=O)c1ccc(F)c2ncccc12", "% Inhibition": -5, "Z score": 0.9}, {"compound": "Cn1nncc1S(=O)(=O)N(CC1CC1)CC1CC1", "% Inhibition": -22, "Z score": 2.61}, {"compound": "COC(=O)c1cccc(S(=O)(=O)NCCc2nc(C)no2)c1C", "% Inhibition": -14, "Z score": 1.28}, {"compound": "CO[C@H]1Cc2ccccc2N(Cc2ccccn2)C1", "% Inhibition": 7, "Z score": -1.06}, {"compound": "Cc1nc(N)c(C#N)c(-c2ccc3c(c2)OCO3)c1C", "% Inhibition": -1, "Z score": 0.12}, {"compound": "CCC1(NC(=O)Cc2cccc3ccccc23)CCOCC1", "% Inhibition": 33, "Z score": -3.72}, {"compound": "CN(C)c1ccnc(NC(=O)N[C@@H]2CCCc3cccnc32)n1", "% Inhibition": -2, "Z score": 0.37}, {"compound": "CCn1cc(Br)c(C(=O)N(C)c2cccc(C)n2)n1", "% Inhibition": -2, "Z score": 0.26}, {"compound": "O=C(NCc1cccnc1)N1CCC(C(F)(F)F)(C(F)(F)F)C1", "% Inhibition": -12, "Z score": 1.7}, {"compound": "O=C1CC[C@@]2(CCCN(c3ncc(F)cn3)C2)CN1Cc1cccnc1", "% Inhibition": 10, "Z score": -0.94}, {"compound": "CN1CCC(NC(=O)Nc2cccc(N(C)C)n2)CC1", "% Inhibition": -14, "Z score": 2.35}, {"compound": "O=C(c1ccsc1)N1CCN(c2c(F)c(F)c(F)c(F)c2F)CC1", "% Inhibition": -9, "Z score": 1.78}, {"compound": "Cc1noc(NCc2cccc(-c3cccnc3)c2)n1", "% Inhibition": 10, "Z score": -1.16}, {"compound": "Cc1nn(C)c2sc(C(=O)N3c4ccccc4C[C@@H]3C)cc12", "% Inhibition": -4, "Z score": 0.55}, {"compound": "CCn1c(=O)n(CC(=O)N2CCN(C3CCCCC3)CC2)c(=O)c2cnc(-c3ccccc3)nc21", "% Inhibition": -2, "Z score": 0.38}, {"compound": "CCOC(=O)N1CCN(c2oc(C(C)C)nc2C#N)CC1", "% Inhibition": 0, "Z score": -0.03}, {"compound": "C[C@@H](C(N)=O)n1cc(-c2cccc(C(=O)NCCCc3ccco3)c2)cn1", "% Inhibition": -1, "Z score": 0.2}, {"compound": "CCOc1ncccc1CNC(=O)CNC(C)=O", "% Inhibition": 36, "Z score": -4.05}, {"compound": "COc1ccccc1-c1noc(-c2cnn(C(C)C)c2C)n1", "% Inhibition": -6, "Z score": 0.58}, {"compound": "CC(C)(C)NC(=O)Cn1ccn2nc(-c3ccc(F)cc3)c(CO)c2c1=O", "% Inhibition": -5, "Z score": 0.53}, {"compound": "Cc1ccc(C2=NN(C(=O)CN3CCN(Cc4ccccc4)CC3)[C@H](c3ccc(C)cc3)C2)cc1", "% Inhibition": -8, "Z score": 1.44}, {"compound": "C#CCOc1ccc(N(C)CC(=O)NCc2ccco2)cc1", "% Inhibition": -2, "Z score": 0.18}, {"compound": "CC(C)c1noc(CN(C)C[C@@H]2CCCN3CCCC[C@H]23)n1", "% Inhibition": -1, "Z score": 0.11}, {"compound": "O=C1Nc2ccc(Br)cc2C1=O", "% Inhibition": 36, "Z score": -1.16}, {"compound": "CC(C)CCNC(=O)CCC[C@@H]1[C@H]2CCCN3CCC[C@@H](CN1C(=O)c1cccnc1)[C@@H]23", "% Inhibition": 10, "Z score": -2.05}, {"compound": "COc1ccc(CNC(=O)C(=O)NCCO)cc1", "% Inhibition": -6, "Z score": 0.7}, {"compound": "CC(C)(C)CC(=O)NC[C@H](O)c1ccc(Cl)s1", "% Inhibition": -6, "Z score": 0.72}, {"compound": "CC(C)n1[nH]c(=O)c2c1NC(=O)C[C@@H]2c1cccc2nccnc12", "% Inhibition": 37, "Z score": -4.15}, {"compound": "Cc1ncc(-c2nc(-c3ccco3)nn2C(C)(C)C)cn1", "% Inhibition": 1, "Z score": -0.07}, {"compound": "O=C(c1cc(C2CC2)n(CC(=O)N(Cc2ccccc2)c2ccccc2)n1)N1CCOCC1", "% Inhibition": -2, "Z score": 0.45}, {"compound": "O=S(=O)(c1ccc(F)cc1)N1CCN(Cc2noc(-c3ccc(Cl)cc3Cl)n2)CC1", "% Inhibition": 8, "Z score": -1.16}, {"compound": "O=C(COc1ccc2c(c1)OCO2)Nc1ccc2c(c1)COC2=O", "% Inhibition": -3, "Z score": 0.58}, {"compound": "c1ccc(CNc2nnc(NC3CCCCC3)o2)cc1", "% Inhibition": -9, "Z score": 1.83}, {"compound": "O=C(NC1CCCCC1)c1nn(-c2ccc(F)cc2)c2ccccc2c1=O", "% Inhibition": -15, "Z score": 2.13}, {"compound": "Cc1ccc(CN(C)Cc2c(C)noc2C)o1", "% Inhibition": 27, "Z score": -3.03}, {"compound": "COc1ncncc1NC(=O)N[C@@H](Cc1ccccc1)C1CC1", "% Inhibition": 7, "Z score": -0.96}, {"compound": "Cc1nc(-c2nnc(NC(=O)NCc3cccs3)o2)cs1", "% Inhibition": -8, "Z score": 1.1}, {"compound": "O=C(CN1CCN(c2ccccc2F)C1=O)NCCc1cccs1", "% Inhibition": -5, "Z score": 0.56}, {"compound": "CCn1nc(C2CC2)cc1C(=O)Nc1ccnn1-c1ccc(C)nn1", "% Inhibition": -19, "Z score": 1.88}, {"compound": "CC(C)C[C@H](O)C(=O)NCCn1cc(Cl)cn1", "% Inhibition": -7, "Z score": 0.82}, {"compound": "CC1(C)Cc2cc(C(=O)N[C@@](C)(Cn3cccn3)C(N)=O)ccc2O1", "% Inhibition": -4, "Z score": 0.56}]}]}
